Data taken from publication PMC4969574 (The EMBO Journal, 2016).
Read-outs that look alike come from different tables or passages of the source. No constants are given. Whether binding was seen depends on the method and setting. For some assays here: In cells and extracts the contact can be indirect. Some results given as binding are weak or reduced against the parent protein; the word gives no strength. For some assays here: Tags and fused reporters may be left off the sequences shown.

The chains behind the UniProt entries cited, without tags or fusion partners.
UniProt Q9I745: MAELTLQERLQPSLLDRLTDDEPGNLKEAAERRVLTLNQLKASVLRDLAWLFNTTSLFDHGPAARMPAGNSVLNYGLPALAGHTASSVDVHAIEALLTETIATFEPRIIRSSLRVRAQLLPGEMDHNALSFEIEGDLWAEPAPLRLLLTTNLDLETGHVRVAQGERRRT

Tests used:
[1] = target: His6-TssA1(1-245) (P. aeruginosa) (UniProt Q9I750); experiment: SEC-MALS; His6-TssA1(1-245) on Superdex 200 10/300, room temperature, 25 mM Tris-HCl pH 7.5, 150 mM NaCl; both purified
[2] = target: His6-TssA1(1-245) (P. aeruginosa) (UniProt Q9I750); experiment: cross-linking; about 30 μg purified protein, EGS 2 and 5 mM, room temperature, 30 min, 1 or 2 h, 50 mM NaH2PO4 pH 7.5, 150 mM NaCl; 3-12% SDS-PAGE, anti-His6 Western blot; both purified
[3] = target: His6-TssA1(1-245) (P. aeruginosa) (UniProt Q9I750); experiment: AUC; sedimentation velocity of TssA1(1-245) at 1.6, 1.2 and 0.8 mg/ml, 50,000 rpm, 20 °C, 25 mM Tris-HCl pH 7.5, 200 mM NaCl; c(s) by SEDFIT; both purified
[4] = target: T1, TssA1 fused to the adenylate cyclase T25 or T18 subunit (P. aeruginosa) (UniProt Q9I750); experiment: two-hybrid; bacterial two-hybrid (BTH), T25 and T18 adenylate cyclase fusions in E. coli DHM1; β-galactosidase activity in Miller units and X-gal LB agar plates
T1 sequence: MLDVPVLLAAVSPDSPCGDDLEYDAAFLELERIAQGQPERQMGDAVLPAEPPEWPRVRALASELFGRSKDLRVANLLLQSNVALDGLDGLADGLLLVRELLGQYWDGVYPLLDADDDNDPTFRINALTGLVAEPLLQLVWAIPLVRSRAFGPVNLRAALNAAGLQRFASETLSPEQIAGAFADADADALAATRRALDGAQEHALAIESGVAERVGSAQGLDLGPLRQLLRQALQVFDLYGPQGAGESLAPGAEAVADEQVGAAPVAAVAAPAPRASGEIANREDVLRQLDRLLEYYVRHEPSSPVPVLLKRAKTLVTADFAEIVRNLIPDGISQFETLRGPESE

[5] = target: T2, His6-TssA1 co-produced with TssB1C1 (P. aeruginosa) (UniProt Q9I750); experiment: SEC; Ni-NTA eluate of co-expressed His6-TssA1 and TssB1C1 on Superdex 200 10/300, 25 mM Tris-HCl pH 7.5, 150 mM NaCl; SDS-PAGE of the elution fraction; both purified
T2 sequence: T1 sequence

[6] = target: T2, His6-TssA1 co-produced with TssB1C1 (P. aeruginosa); experiment: pull-down; Ni-NTA co-purification of His6-TssA1 and untagged TssB1C1 co-expressed in E. coli; Western blot with anti-His6 and anti-TssB1
[7] = target: T2, His6-TssA1 co-produced with TssB1C1 (P. aeruginosa); experiment: Ni-NTA nanogold labelling with negative stain electron microscopy; SEC fractions of co-purified His6-TssA1 and TssB1C1 incubated on ice with Ni-NTA nanogold, unbound gold removed by SEC, negative stain EM; both purified
[8] = target: T1, TssA1 fused to the adenylate cyclase T25 or T18 subunit (P. aeruginosa); experiment: two-hybrid; bacterial two-hybrid (BTH), T25 and T18 adenylate cyclase fusions in E. coli DHM1; β-galactosidase activity in Miller units and X-gal LB agar plates; remark: listed apart in the source

In the case of “His6-TssA1(1-245) (from UniProt Q9I750 1-245) (domain or fragment)”, the binding [1] is reported as “no binding”, the binding [2] is reported as “no binding” and the binding [3] is reported as “no binding (tested: 1.6, 1.2 and 0.8 mg/ml)”.

In the case of “TssE1 fused to the adenylate cyclase T25 or T18 subunit (from UniProt Q9I745 1-169)”, the binding [4] is reported as “no binding”.

B1: TssB1C1 sheath (complex, UniProt Q9I749 1-172; Q9I748 1-498)
chain 1: MGSTTSSQKFIARNRAPRVQIEYDVELYGAEKKVQLPFVMGVMADLAGKPAEPQAAVADRKFLEIDVDNFDARLKAMKPRVAFNVPNVLTGEGNLSLDITFESMDDFSPAAVARKVDSLNKLLEARTQLANLLTYMDGKTGAEEMIMKAIKDPALLQALASAPKPKDDEPQA
chain 2: MAELSTENLAQGQTTTEQTSEFASLLLQEFKPKTERAREAVETAVRTLAEHALEQTSLISNDAIKSIESIIAALDAKLTAQVNLIMHHADFQQLESAWRGLHYLVNNTETDEQLKIRVLNISKPELHKTLKKFKGTTWDQSPIFKKLYEEEYGQFGGEPYGCLVGDYYFDQSPPDVELLGEMAKISAAMHAPFISAASPTVMGMGSWQELSNPRDLTKIFTTPEYAGWRSLRESEDSRYIGLTMPRFLARLPYGAKTDPVEEFAFEEETDGADSSKYAWANSAYAMAVNINRSFKLYGWCSRIRGVESGGEVQGLPAHTFPTDDGGVDMKCPTEIAISDRREAELAKNGFMPLLHKKNTDFAAFIGAQSLQKPAEYDDPDATANANLAARLPYLFATCRFAHYLKCIVRDKIGSFKEKDEMQRWLQDWILNYVDGDPAHSTETTKAQHPLAAAEVVVEEVEGNPGYYNSKFFLRPHYQLEGLTVSLRLVSKLPSAKEA
With B1 the binding [5] was “binds”, the binding [6] was “binds” and the binding [7] was “binds”.

B2: His6-TssA1 (natural protein)
chain: T1 sequence
For B2, the binding [8] was “binds”.
